# Data reported in the supplement of paper PMC12217912.
# This is one part of the list. Sequences were assembled here from the parent chain. Values near 0.05 are background.
# B1: TEV protease; numbered along this chain (parent)
# chain: MGESLFKGPRDYNPISSSICHLTNESDGHTTSLYGIGFGPFIITNKHLFRRNNGTLVVQSLHGVFKVKDTTTLQQHLVDGRDMIIIRMPKDFPPFPQKLKFREPQREERICLVTTNFQTKSMSSMVSDTSCTFPSGDGIFWKHWIQTKDGQCGSPLVSTRDGFIVGIHSASNFTNTNNYFTSVPKNFMELLTNQEAQQWVSGWRLNADSVLWGGHKVFMVKPEEPFQPVKEATQL
# Variants of: B1
# Test: raw area under fraction-flipped curve 0-4 h after induction (AUC4h, not background-subtracted), DNA-recorder readout of cleavage of the substrate (dimensionless); higher = more cleavage of the substrate by the protease variant
# Conditions: temperature: 34 °C; time window: 0-4 h after rhamnose induction
# 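Further: Bxb1 expression induced with 0.2% (w/v) L-rhamnose at OD600 near 0.5, cultures sampled hourly, flipped fraction per protease–substrate barcode pair counted by paired-end Illumina sequencing.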
Variant,area with substrate ENLFFQS,area with substrate ENLHFQS,area with substrate ENLLFQS,area with substrate ENLNFQS,area with substrate ENLVFQS,area with substrate ENLEFQS,area with substrate ENLQFQS,area with substrate ENLWFQS,area with substrate ENLKFQS,area with substrate ENLPFQS
F101D,0.0727,0.0502,0.0528,0.0439,0.0457,–,–,–,–,–
C131Y,–,–,–,–,–,0.061,0.0711,0.0737,–,–
V217R,0.058,–,–,0.0506,–,–,–,0.0685,0.0696,0.0486
Q227F,0.0752,0.0675,0.07,–,0.067,0.0764,0.0859,–,–,0.0697
R87G,0.0731,–,–,0.0437,–,–,–,–,0.0654,–
F95T,–,–,0.0507,0.0154,–,0.0487,0.0611,–,0.0765,0.0395
G213N,0.0664,–,–,–,–,–,–,–,–,–
G213Q,0.0612,–,–,–,–,0.0619,0.0547,–,–,–
E223G,–,0.0602,–,0.0484,–,–,–,–,–,–
L33C,0.108,–,0.0607,0.0525,–,0.0617,0.0589,–,–,0.0681
I164K,–,–,0.0722,0.0664,–,–,–,0.0566,–,–
L235I,–,0.0536,–,0.0463,–,0.071,–,–,–,0.0644
L235G,0.0852,–,0.06,0.0497,–,–,0.0682,–,–,–
G35N,–,–,0.0361,–,–,–,0.0391,–,0.044,–
I167H,0.1,–,–,0.0475,0.0474,–,0.0681,0.0566,–,0.064
S154Q,0.0919,0.0701,0.0684,–,–,–,0.0592,–,–,0.0052
N178W,0.109,–,0.0868,–,–,–,–,–,–,–
N178F,–,–,–,–,–,0.0516,–,–,0.153,–
I139H,0.0551,–,–,0.0596,0.0774,–,–,–,–,0.0654
N172Y,0.058,0.0656,–,–,0.0651,–,0.0674,–,0.0559,–
N172K,0.0461,–,–,–,–,–,–,–,0.0645,0.0663
N175W,0.0911,–,–,–,–,–,–,–,0.0705,–
R102K,0.0829,0.127,0.079,0.0686,0.102,–,0.0611,0.0591,–,0.0612
Q59A,0.0794,–,–,0.0711,–,–,–,0.0818,–,–

# Same assay, conditions: temperature: 34 °C; time window: 0-4 h after rhamnose induction
Variant,area with substrate ENLRFQS,area with substrate ENLSFQS,area with substrate ENLTFQS,area with substrate ENLIFQS,area with substrate ENLMFQS,area with substrate ENLDFQS,area with substrate ENLGFQS
V217R,0.0826,0.0657,0.0522,–,–,–,–
Q227F,–,0.0558,–,0.0957,0.0638,–,–
F95T,–,–,–,0.0537,–,–,–
G213N,0.0413,–,–,–,–,–,–
G213Q,–,–,–,0.0643,–,–,–
L33C,–,0.0699,–,0.102,–,–,–
I164K,0.0519,–,–,0.0356,–,–,–
L235I,–,–,0.0317,–,–,–,–
L235G,–,0.0722,0.0664,–,–,0.0473,–
G35N,–,–,–,–,0.0299,–,–
I167H,0.0698,0.0511,–,–,0.0478,–,–
S154Q,–,–,–,–,0.0543,–,–
N178F,–,0.0879,0.068,–,–,–,–
I139H,–,–,–,0.0566,–,–,–
N172K,–,0.0746,–,0.0695,–,–,–
N175W,–,–,–,0.0713,–,–,–
R102K,0.0765,0.0593,–,–,0.0806,–,–
Q59A,–,–,–,0.108,–,–,0.0707
